Test results from PubChem BioAssay AID2675 (National Center for Advancing Translational Sciences (NCATS), 2010).
Screen size: about 280,000 compounds; about 100 (0.036%) were called active. The shares of active, inactive and inconclusive entries below differ from those in the screen. Calls follow the shape of the dose curve; as a rule, active = well fitted inhibition curve with a large enough effect in the signal ratio, with a control signal flat (not every such curve was filed as active); inconclusive = small, poorly fitted or top-dose-only effect, or effect the other way, or a change in a side signal; inactive = no such curve, though single readings can be large or run the other way; the % refers to the signal ratio. Where the call is inconclusive, the potency comes from a doubtful curve fit. A note “side channel” means that the fit belongs to a control or component signal, not to the main read-out.

The compounds below were run against Muscleblind-like protein 1 (Homo sapiens) (UniProt Q9NR56) (assay: qHTS Assay for Inhibitors of MBNL1-poly(CUG) RNA binding). Conditions: TR-FRET MBNL1-His/biotin-(CUG)12 binding, 665/545 ratio; activity change, negative = inhibition: at 57.5 µM (top of the series).
Summary of the method: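 TR-FRET between His-tagged MBNL1 and biotin-(CUG)12 RNA, detected with Tb anti-His antibody (0.055 ng/ul) and streptavidin-XL665 (5 nM), 60 min at room temperature. Compounds titrated 92 nM to 58 uM; 665/545 nm ratio normalized to buffer and complex controls.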
% is scaled to controls: 0 for no effect and ±100 for the full control effect; potency is read from the fitted curve at half-maximal effect; tags tell the direction and shape of the fitted curve or compound fluorescence and quenching.

Sequence of UniProt Q9NR56 (Q9NR56 whole entry, looked up): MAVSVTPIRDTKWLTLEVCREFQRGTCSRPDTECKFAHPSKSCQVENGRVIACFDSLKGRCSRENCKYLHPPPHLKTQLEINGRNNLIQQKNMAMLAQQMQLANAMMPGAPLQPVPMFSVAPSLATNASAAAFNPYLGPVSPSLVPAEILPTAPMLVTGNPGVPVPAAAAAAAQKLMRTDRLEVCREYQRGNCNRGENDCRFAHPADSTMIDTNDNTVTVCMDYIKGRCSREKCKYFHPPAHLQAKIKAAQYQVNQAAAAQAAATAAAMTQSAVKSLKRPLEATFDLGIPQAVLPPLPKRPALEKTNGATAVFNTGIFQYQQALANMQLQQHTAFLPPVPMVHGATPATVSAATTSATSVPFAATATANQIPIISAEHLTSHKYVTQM

SMILES | Potency | activity change, negative = inhibition
BrC(/C=N/Nc1nc(N2CCOCC2)nc(N2CCOCC2)n1)=C/c1ccccc1 | inconclusive: 14.1 µM [quencher, side channel, partial curve] | 
COC(=O)C1=C(C)NC(C)=C(C(=O)OC)C1c1ccccc1OCc1c(C)no[n+]1[O-] |  | inactive: 10.7%
COc1ccc(Cl)cc1NC(=S)NCCC(c1ccccc1)c1ccccc1 | inconclusive: 12.6 µM [fluorescent, side channel, partial curve] | 
Cc1ccc(CNC(=O)c2ccc(CNc3c(N4CCCC4)c(=O)c3=O)cc2)cc1 | inconclusive: 39.8 µM [quencher, side channel, single point] | 
COc1cccc(-n2nc3c(-n4ncc(C#N)c4N)nnc(C)c3c2C)c1 |  | inactive: 8.85%
Cc1ccc(C#CC[N+]2(C)CCCCC2)cc1 |  | inactive: -8.08%
COc1cccc(OCCCCN2CC(C)OC(C)C2)c1 (configuration not stated) |  | inactive: -4.43%
O=[N+]([O-])c1cccc(CSc2nnc3ccccn23)c1 | inconclusive: 15.8 µM [quencher, side channel, partial curve] | 
COc1ccc(/C=C2\Oc3cc(OCC(=O)N4CCC[C@H]4CO)ccc3C2=O)c(OC)c1 | inconclusive: 15.8 µM [quencher, side channel, partial curve] | 
COc1ccc(CNC(=O)c2cc3ccccc3o2)cc1OC | inconclusive: 100 µM [inhibitor, partial curve] | 
Cc1csc(NC(=O)CSc2ccc([N+](=O)[O-])cn2)n1 | inconclusive: 15.8 µM [quencher, side channel, partial curve] | 
CCC(=O)NC(=S)Nc1ccc(NC(=O)c2ccc([N+](=O)[O-])cc2Cl)cc1 | inconclusive: 8.91 µM [quencher, side channel, partial curve] | 
N/C(=N\S(=O)(=O)c1ccccc1)c1ccc([N+](=O)[O-])cc1 | inconclusive: 11.2 µM [quencher, side channel, partial curve] | 
O=C(COc1cccnc1[N+](=O)[O-])Nc1cccc(S(=O)(=O)N2CCCCC2)c1 | inconclusive: 25.1 µM [quencher, side channel, single point] | 
COc1ccc(CCNc2ccc([N+](=O)[O-])cn2)cc1 | inconclusive: 15.8 µM [quencher, side channel, partial curve] | 
O=[N+]([O-])c1cccc2c(Br)[nH]nc12 | inconclusive: 8.91 µM [quencher, side channel, partial curve] | 
O=C(NCCO)c1cc2cc(Cl)cc(Cl)c2oc1=O | inconclusive: 14.1 µM [quencher, side channel, partial curve] | 
